In paper PMC7819943, “Rice protein-binding microarrays: a tool to detect cis-acting elements near promoter regions in rice”:
The other results are listed elsewhere or left out.

These sequences were tested against T1, OsWOX13 (Oryza sativa, UniProt Q5QMM3 1-267) (assay: protein-binding microarray (RPBM); PBS, 2% BSA, 51.3 ng/ul salmon testes DNA, 50 uM zinc acetate, 200 nM TF, 25 C, 1 h; high values mean tight binding). Conditions: protein: recombinant; tags: N-terminal polyhistidine and DsRed monomer fusion (pET32a); label: CyDye5-dUTP incorporated in the synthesized complementary strand; 3' TTTTT single-stranded linker to array surface; dsDNA, one strand shown.
T1 sequence: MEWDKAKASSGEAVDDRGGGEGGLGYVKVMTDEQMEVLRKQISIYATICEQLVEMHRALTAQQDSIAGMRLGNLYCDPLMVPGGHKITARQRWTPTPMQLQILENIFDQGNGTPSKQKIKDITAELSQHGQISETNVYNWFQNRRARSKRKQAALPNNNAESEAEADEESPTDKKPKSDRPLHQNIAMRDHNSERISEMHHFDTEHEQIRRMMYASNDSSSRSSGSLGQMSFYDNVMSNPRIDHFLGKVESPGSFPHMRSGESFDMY
Summary of the method: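 Binding signal is reported as fluorescence intensity per feature (arbitrary units) from an Axon 4000B scanner. Incubation used 200 nM of each Ni–NTA-purified, N-terminally polyhistidine- and DsRed-fused transcription factor from E. coli BL21-CodonPlus on a double-stranded custom Agilent array for 1 h at 25 °C, with 50 µM zinc acetate in the buffer, followed by washing.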
With “CAGCACAGTTAAATTGGGACTTTTGTATTCCTAGTTTACACGGAGTCACCTAGTGCAG” the binding signal was 3640 fluorescence intensity (a.u.).
For “GAGATATAATTGATTAGAGTTACTTTCAATCTTTTCCGTGCGGAGTCACCTAGTGCAG”, the binding signal was 62000 fluorescence intensity (a.u.).
“TACTTTTAAATTTATGTTTTATTGTTCAGGTTCTCAAATTCGGAGTCACCTAGTGCAG” was tested, and the binding signal was 5580 fluorescence intensity (a.u.).
For “TTGATTTATGACTCCATATTTTACTGAAATGGAAGCATGGCGGAGTCACCTAGTGCAG”, the binding signal was 15700 fluorescence intensity (a.u.).
With “CTTTAATGTTGATATACCATAGTTTTGATGCTTGATGTGCCGGAGTCACCTAGTGCAG” the binding signal was 4230 fluorescence intensity (a.u.).
With “TTCCCATTTCTTGGAAGATTGGCCAATAACTAGTAACATTCGGAGTCACCTAGTGCAG” the binding signal was 5230 fluorescence intensity (a.u.).
In the case of “GGGCATAAATTTTGGTGATTTTCGGTTTTCTGAAGTTCCTCGGAGTCACCTAGTGCAG”, the binding signal was 7130 fluorescence intensity (a.u.).
For “CGCTCAATCAATCTGTACATGCTACCATGCTAGTTTCACCCGGAGTCACCTAGTGCAG”, the binding signal was 22800 fluorescence intensity (a.u.).
With “ATCTCTATAATAGACAAACTCATAAGATGAAAATTCTCGACGGAGTCACCTAGTGCAG” the binding signal was 4180 fluorescence intensity (a.u.).
For “GAACAGACAGATTGATGCCCATGTTACCATGGTGGTGTCTCGGAGTCACCTAGTGCAG”, the binding signal was 36000 fluorescence intensity (a.u.).
In the case of “ACGATGTGACAAATCGTTAATTGAGTGGCAAATAGTTAAACGGAGTCACCTAGTGCAG”, the binding signal was 10400 fluorescence intensity (a.u.).
“TATAATTTCCGTAATTCTCCGTATATAGAACAGTTGTAAGCGGAGTCACCTAGTGCAG” was tested, and the binding signal was 8920 fluorescence intensity (a.u.).
“TGAGATGATTTGGGCGTCCGTGGCTCGGTGGCGGCTACGTCGGAGTCACCTAGTGCAG” was tested, and the binding signal was 5930 fluorescence intensity (a.u.).
“ATGGTCACCTAAAATCAATTAAATTACGTGTGTATGCTGCCGGAGTCACCTAGTGCAG” was tested, and the binding signal was 7340 fluorescence intensity (a.u.).
“ATGAAAATTTGACGGGAATATAGTATTATGGTATAGTAAGCGGAGTCACCTAGTGCAG” was tested, and the binding signal was 3510 fluorescence intensity (a.u.).
With “ATTGATATTAATGAATCTAGACATATATATCTATTTAGATCGGAGTCACCTAGTGCAG” the binding signal was 3960 fluorescence intensity (a.u.).
For “TCAAATAATTGATAGCACCAAAATTTATCTATATTTTGACCGGAGTCACCTAGTGCAG”, the binding signal was 47300 fluorescence intensity (a.u.).
With “GGCTGACAGATCTGCTGATGTAGTCGGCTTCACCTCCAGCCGGAGTCACCTAGTGCAG” the binding signal was 17400 fluorescence intensity (a.u.).
For “GTTGATGGATTTGATCATCATTGTCGGGTAAAATTTTCTTCGGAGTCACCTAGTGCAG”, the binding signal was 27800 fluorescence intensity (a.u.).
In the case of “GGAACAGGTACCATAATTGTTAATAACCTAATACTGGGCCCGGAGTCACCTAGTGCAG”, the binding signal was 5270 fluorescence intensity (a.u.).
“GTTTGACTGCTAGTGCATTAATCAGATTTAAACTTACAATCGGAGTCACCTAGTGCAG” was tested, and the binding signal was 8120 fluorescence intensity (a.u.).
For “TAAAATTTAAAATTATAAAATTAATAATGCTGTAAATCTACGGAGTCACCTAGTGCAG”, the binding signal was 7610 fluorescence intensity (a.u.).
“AAAACAAAATTAATGAATTAATTAACCAAGACCCATGGCTCGGAGTCACCTAGTGCAG” was tested, and the binding signal was 33100 fluorescence intensity (a.u.).
